About 540 (0.36%) of roughly 150,000 compounds showed an effect of 50% or more. Some of the results follow.
Each molecule was assayed on Plasmodium falciparum (assay: Primary screen in NF54 nanoGlo assay, in single point, at 2uM, 72h; a lower Z score goes with more inhibition). Details: timepoint 72 hour.
Format: functional, Erythrocyte

SMILES | % Inhibition [%] | Z score
Cc1cnc(CCN(C)C(=O)C2CC3CCC2C3)s1 (stereo not drawn) | -2 | 0.17
CCC[C@H](C)N1CC2(CCN(C(=O)CCc3ccccn3)CC2)OC1=O | -5 | 0.93
O=C(CCc1ccccn1)N1CCc2cccc(F)c21 | -5 | 0.67
CC(=O)N1CCN(c2ncccc2CNC(=O)c2cc(Cl)c[nH]c2=O)CC1 | -20 | 2.05
O=C(Nc1nnc(-c2cc3ccccc3o2)s1)N[C@H]1CC[C@@H](CO)CC1 | -24 | 2.76
CN(C(=O)c1sc2ncccc2c1N)C1CCCCC1 | -1 | 0.19
CC1=N[C@](C)(c2ccc(N)cc2)CC(=O)N1C | -8 | 1.14
CC(C)CS(=O)(=O)N1CCC(N2C(=O)[C@@H]3CCCN3C2=O)CC1 | -10 | 0.98
CNc1ccc(C(=O)N2C[C@@H](C)N(C)[C@@H](C)C2)cn1 | 14 | -1.76
CC[C@@H](CO)N(Cc1ccncc1)C(=O)c1nc2cc(C)ccn2c1F | -3 | 0.49
Cc1cc(NC(=O)Cn2c(-c3ccccc3Cl)csc2=O)no1 | -1 | 0.07
N#Cc1cc(F)c(F)cc1Br | 14 | -1.64
O=C(NC1(c2c(F)cccc2F)COC1)[C@H]1C[C@@H]1c1ccncc1 | 3 | -0.43
CCn1ccnc1CN[C@H](C(=O)OC)C1CC1 | 1 | -0.13
Cc1cc(C)n2ncc(CN3CCO[C@H](c4cccnc4)C3)c2n1 | 3 | -0.6
CCc1cnc(CN(C)C(=O)Nc2ccc(-n3cc(C)cn3)c(F)c2)s1 | -10 | 1.37
Cc1cc(C)n(-c2ccc(CN3CCCc4ccc(S(N)(=O)=O)cc43)cc2)n1 | -14 | 2.55
CNC(=O)c1ccc(OC)c(CCc2c(C)n[nH]c2C)c1 | -12 | 1.48
Cc1c(C(=O)N2C3COCC2C3)sc2ncc(C(=O)N3C4COCC3C4)cc12 | -1 | 0.12
CC(C)(C)OC(=O)N[C@@H](CC(=O)O)C1CCOCC1 | 2 | -0.23
Cc1ccc(-c2cn[nH]c2[C@H]2CCCN(C(=O)C(=O)CC(C)C)C2)cc1 | -9 | 1.66
O=C(NCC1(c2ccccc2)CC1)N1CCC(N2CCCCC2)CC1 | -4 | 0.55
O=C(NC(C1CC1)C1CC1)c1ccc2c(=O)n3c(nc2c1)CCCCCC3 | -12 | 1.17
CCC#CCN1CCC=C([C@H](CC(C)C)NC(C)=O)C1 | -9 | 1.21
O=C(Nc1ccc(F)cc1F)N1CCCN(c2nc3cc(F)ccc3n3cccc23)CC1 | 10 | -1.73
c1ccc(-c2nc(-c3cnccn3)n[nH]2)nc1 | 4 | -0.38
CC(C)c1cc(C(=O)N2C(C(=O)O)CC[C@H]2c2ccccc2)no1 (stereo partly drawn) | -2 | 0.48

SMILES | % Inhibition [%] | Z score
Cc1nc(-c2c[nH]c(=O)c(Cl)c2)n(-c2ccccc2C(=O)O)n1 | -3 | 0.45
COc1cccc(C2CC(C)CN2c2ccc3nncn3n2)c1 (stereo not drawn) | 1 | -0.08
COc1ccc(OC)c(CN[C@H]2CC[C@@H](n3cc(C(=O)NC4CC4)nn3)CC2)c1 | -6 | 0.74
CCc1nc(-c2cc(S(=O)(=O)Nc3cccc(Cl)c3C)c(C)s2)cs1 | 1 | -0.07
COCC(C)CS(=O)(=O)N1CCC[C@H]1CCc1ccccn1 (stereo partly drawn) | -6 | 1.02
CN(C)CC(C)(C)CNC(=O)c1cc(F)cc(Br)c1 | -15 | 1.52
COc1ccc(OC)c([C@H]2CCN(C(=O)NCc3ccc(CO)cc3)C2)c1 | -12 | 2.28
COc1ccc(CNC(=O)Cn2ccc3ccc(N4CCOCC4)nc32)c(OC)c1 | -20 | 2.69
C=CCOc1ccc([C@@H]2NCCC3(O)CCCCC23)cc1 (stereo partly drawn) | -4 | 0.46
Cn1nccc1C(=O)N1CCc2c(c(C(=O)NCc3nccs3)nn2Cc2ccccc2)C1 | -8 | 1.05
O=S(=O)(c1cccc(Cl)c1)N1C2CCC1CC(n1nccn1)C2 (stereo not drawn) | -9 | 1.4
Cc1nc2c(C(=O)N3CCC(c4nc(C(=O)N5CCCC5)c(C)o4)CC3)cnn2c(C)c1Cc1ccccc1Cl | -1 | 0.17
O=C(COCC(F)(F)F)Nc1nc(C2CC2)cs1 | -8 | 0.91
Cn1cc(-c2nc3n(c2NC(=O)COC2(C)CCC2)CCCC3)cn1 | -2 | 0.27
CCc1nnc(-c2c(C)c(S(=O)(=O)Nc3cccc(C)c3)c(C)n2C)o1 | -5 | 0.59
COc1ccc(Cl)cc1NC(=O)N1CCC2(CC1)[C@H](O)C[C@@H]2OC | -10 | 1.79
O=c1[nH]ccc2ccc(-n3ccnc3)cc12 | 1 | -0.25
Cc1nn(C)c(C)c1CC(=O)Nc1ccc(N2CCNC(=O)C2)nc1 | -4 | 0.72
COc1ccc(NC(=O)CN2CCOCC2)cc1S(=O)(=O)N1CCOCC1 | -12 | 1.63
O=C(CCN1CCn2ccnc2C1)NCc1ccccc1Cl | -3 | 0.59
CCCN(CCC)C(=O)CCc1nc(-c2ccc(N3CCCC3)cc2)no1 | -1 | 0.22
CC1(C)C[C@@H](NCc2cc3cc4c(cc3nc2OCc2cccc(F)c2)OCO4)CCO1 | -13 | 1.9
CCOc1ccccc1NC(=O)N1CCN(c2nccs2)C(=O)C1 | 22 | -2.75
CCN1CCN(Cc2ccc3cc[nH]c3n2)CC1(C)C | -13 | 2.68
Cc1sc(=O)n(CC(=O)Nc2cnccn2)c1C | -11 | 1.79
O=C1CCN(C(=O)C2CCN(C(=O)[C@H]3CCOC3)CC2)CCCCCCN1 | -7 | 0.86
CCc1cccc2c(CCNS(=O)(=O)[C@H]3CCOC3)c[nH]c12 | -13 | 1.24

Source: ChEMBL document CHEMBL4888484, “Replenishing the malaria drug discovery pipeline: Screening and hit evaluation of the MMV Hit Generation Library 1 (HGL1) against asexual blood stage Plasmodium falciparum ,using a nano luciferase reporter read-out” (2022)
